Laboratory results: the BET-seq Pho4 binding data (Le et al. 2018)
This is one part of the list. The energies were worked out here from pooled read counts, against the library average; single values are noisy.

target: T1, Pho4 (S. cerevisiae) (UniProt P07270); test: relative binding free energy (BET-seq); higher = weaker binding; settings: reference: library average
T1 sequence: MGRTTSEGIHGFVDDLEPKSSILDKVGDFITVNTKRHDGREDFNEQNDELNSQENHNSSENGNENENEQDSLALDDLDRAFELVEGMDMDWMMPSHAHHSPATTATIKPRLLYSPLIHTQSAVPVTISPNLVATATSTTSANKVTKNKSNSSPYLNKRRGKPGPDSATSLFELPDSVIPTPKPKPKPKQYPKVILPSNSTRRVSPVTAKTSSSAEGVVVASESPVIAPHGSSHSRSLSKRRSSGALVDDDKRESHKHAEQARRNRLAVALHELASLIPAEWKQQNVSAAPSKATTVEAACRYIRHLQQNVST

Row | Sequence | relative binding free energy [kcal/mol]
1 | GATTTCACGTGGAGCT | 0.45
2 | ATCATCACGTGAGGGG | 0.33
3 | GTGTTCACGTGAAAGG | 0.34
4 | GCGTACACGTGGGGAA | 0.01
5 | GTGAGCACGTGGGGCT | -0.21
6 | TTATGCACGTGACTTG | 0.07
7 | TCTGGCACGTGGGGAT | -0.06
8 | GTGAGCACGTGATGTA | 0.05
9 | TTGATCACGTGGCGCG | 0.04
10 | TGCTACACGTGTGTGG | 0.1
11 | TAGTGCACGTGTGGGG | -0.04
12 | GTTAACACGTGTAAGA | 0.23
13 | TGTTGCACGTGGTGGA | 0
14 | TTATACACGTGTGCGA | -0.02
15 | GTTCTCACGTGATGAG | 0.33
16 | AAAGTCACGTGGAAGG | 0.33
17 | TTCAGCACGTGCGGGT | -0.07
18 | GAAGGCACGTGTAGGG | -0.09
19 | AATGTCACGTGTGCTT | 0.02
20 | GTTGTCACGTGAAAGA | 0.28
21 | GTGTTCACGTGCGCTG | 0.22
22 | AATGGCACGTGACTGG | 0.08
23 | GGGGTCACGTGCTTAG | 0.05
24 | CGTGCCACGTGGTGTT | -0.14
25 | CGTGGCACGTGGTCAT | -0.15

Row | Sequence | relative binding free energy [kcal/mol]
26 | TGGGGCACGTGAGCTC | 0.21
27 | ATTTACACGTGGTTTA | 0.01
28 | GGAGGCACGTGTCTAG | -0.16
29 | AACAGCACGTGGGTGG | -0.17
30 | GTTAACACGTGTCTTT | -0.05
31 | TTGGCCACGTGGTGCT | -0.12
32 | GTTCTCACGTGATGAT | 0.31
33 | TGCAGCACGTGTGGAG | 0.05
34 | TGGGACACGTGCAGTT | -0.03
35 | CAGTGCACGTGTGCGG | -0.25
36 | TCGCGCACGTGCGGGT | -0.19
37 | GGTGGCACGTGAAAGA | 0.23
38 | GGCTGCACGTGACGGT | 0.2
39 | TGGTTCACGTGCAGAG | 0.29
40 | TATTTCACGTGACTTT | 0.37
41 | TGGAACACGTGGAGGT | 0.13
42 | TAGCCCACGTGGGGGG | -0.27
43 | CGCTTCACGTGTTGGA | 0.36
44 | AGGGACACGTGGATCG | 0.08
45 | GTAAACACGTGAAGGG | 0.33
46 | GTGTGCACGTGAGTCG | 0.16
47 | TGTGTCACGTGTACGA | 0.1
48 | CTTAGCACGTGGTATG | -0.18
49 | GGTTTCACGTGGACGG | 0.2
50 | TAGAGCACGTGAAGCG | 0.34

Row | Sequence | relative binding free energy [kcal/mol]
51 | TGAGTCACGTGTTATG | 0.08
52 | TTTGACACGTGGGACA | -0.03
53 | GTGAGCACGTGAGGCT | 0.04
54 | CGATACACGTGTTTGG | 0.06
55 | TTCGGCACGTGATGGC | 0.02
56 | AAGGGCACGTGTTAGT | -0.02
57 | TAGGACACGTGGCGGA | -0.01
58 | GTTTGCACGTGGGAGT | -0.1
59 | GAGTTCACGTGGCATT | 0.27
60 | TGGTGCACGTGGGCAT | -0.1
61 | AATACCACGTGAGGGT | 0.2
62 | GGATGCACGTGAAGTT | 0.4
63 | GGCCGCACGTGTGAGG | 0.11
64 | GAATTCACGTGGAGTT | 0.13
65 | CGTTGCACGTGGGTAA | -0.03
66 | GGTAGCACGTGGGAAG | 0.04
67 | AAGAGCACGTGTGAGG | -0.11
68 | ACTTACACGTGTTATG | 0.15
69 | TATGGCACGTGTATAG | -0.04
70 | AAGGACACGTGGTTAG | -0.15
71 | GTACACACGTGAGGTG | 0.21
72 | ATGAACACGTGAGTTG | 0.29
73 | TTGTTCACGTGTCTGC | 0.11
74 | GTCTTCACGTGTGTGC | 0.33
75 | GTTTTCACGTGGGCTT | 0.27

Row | Sequence | relative binding free energy [kcal/mol]
76 | TATTGCACGTGGAAAA | 0.05
77 | TGGTGCACGTGAGGAT | 0.2
78 | AGTGACACGTGATTGT | 0.08
79 | GGTCTCACGTGTCGTG | 0
80 | AGTGTCACGTGTTGGG | 0.12
81 | TTAGGCACGTGCGGTG | -0.22
82 | ATGTCCACGTGTGGTT | 0.08
83 | TGTATCACGTGGAGAT | 0.17
84 | GATGACACGTGGCGTT | -0.03
85 | TAATCCACGTGGAGTG | 0.01
86 | TTCTACACGTGTGTGT | 0.2
87 | TTTAGCACGTGTGCTG | -0.12
88 | AGTTGCACGTGTCAAT | 0.04
89 | GGGGACACGTGTAGAT | 0.16
90 | GCGGACACGTGGGGGG | -0.08
91 | TGTGTCACGTGGTGAA | -0.02
92 | GGGCTCACGTGTGGGG | 0.41
93 | GGAATCACGTGCGTGG | 0.15
94 | AAAGTCACGTGAATGT | 0.37
95 | GGCTGCACGTGTTAGA | 0.08
96 | TTTAGCACGTGTCATA | -0.08
97 | CCTATCACGTGGGGGT | 0
98 | AGTTACACGTGAGCGG | 0.23
99 | AAAGTCACGTGAGTGC | 0.32
100 | TCGTGCACGTGTAAAG | 0.07

Row | Sequence | relative binding free energy [kcal/mol]
101 | AGGGACACGTGAGTGG | 0.22
102 | TTACGCACGTGGTGTG | -0.29
103 | CTAGTCACGTGGTGTA | -0.03
104 | TGTTTCACGTGAACTA | 0.42
105 | AGGATCACGTGAATGT | 0.39
106 | TTTTCCACGTGGGAAG | 0.07
107 | TTGCGCACGTGGTATA | -0.2
108 | TTGCACACGTGGTATT | 0.04
109 | TAGGACACGTGAGTGG | 0.16
110 | TGGGACACGTGACGAG | 0.22
111 | ATTTGCACGTGTAGTG | 0.14
112 | TATGCCACGTGTTGGT | -0.12
113 | AAAGTCACGTGGTAGT | 0.15
114 | AGAAGCACGTGGGGCT | -0.36
115 | CTGGGCACGTGTGATG | -0.02
116 | GTGTACACGTGGAGGA | 0.02
117 | TTTAGCACGTGGTTGG | -0.07
118 | GATATCACGTGTGTGG | 0.15
119 | GTCTACACGTGGTTTA | 0.12
120 | TGTTTCACGTGTAGGA | 0.16
121 | AGTTGCACGTGATTCT | 0.15
122 | CGAGTCACGTGGGTAT | -0.13
123 | TTTCTCACGTGGTCTT | 0.22
124 | AGGTTCACGTGTACAT | 0.27
125 | GTTCGCACGTGGTGTT | -0.06

Row | Sequence | relative binding free energy [kcal/mol]
126 | GGTATCACGTGTAAGA | 0.33
127 | GGTTTCACGTGAGTAT | 0.47
128 | TCTTTCACGTGGGCAG | 0.17
129 | GTCTTCACGTGCGGTT | 0.23
130 | GGGATCACGTGCGCGT | 0.02
131 | AGATGCACGTGTAATT | 0.2
132 | GTAGGCACGTGGGTAC | -0.25
133 | AAGTTCACGTGAGGTA | 0.4
134 | AAATGCACGTGTCGTG | 0.02
135 | ATGAGCACGTGGGGGC | -0.27
136 | GGAGGCACGTGGATTA | 0.06
137 | AGTAGCACGTGCCGGG | -0.16
138 | TGGGTCACGTGGATGC | 0.13
139 | CTTGTCACGTGCGGGT | -0.01
140 | AGTGCCACGTGGTAAG | -0.11
141 | GCGTTCACGTGTACGG | 0.36
142 | ATAGTCACGTGCTTAG | 0.08
143 | TAGGTCACGTGCGTAG | 0.09
144 | ATAGGCACGTGGATGA | -0.07
145 | CAGAGCACGTGGGGCG | -0.34
146 | TGGTCCACGTGATAGT | 0.08
